Among all 310,000 compounds or so, about 14,000 (4.5%) showed an effect of 50% or more. Effects have a minus sign here. The list shows a part of the results.
Target: human ether-à-go-go-related gene (hERG) potassium channel (human, UniProt Q12809)
Assay: primary screen, population patch clamp on CHO cells stably expressing hERG
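Also: peak tail current of the secondary pulse compared with the same well before compound.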

human ether-à-go-go-related gene (hERG) potassium channel, sequence (Q12809 whole entry, looked up): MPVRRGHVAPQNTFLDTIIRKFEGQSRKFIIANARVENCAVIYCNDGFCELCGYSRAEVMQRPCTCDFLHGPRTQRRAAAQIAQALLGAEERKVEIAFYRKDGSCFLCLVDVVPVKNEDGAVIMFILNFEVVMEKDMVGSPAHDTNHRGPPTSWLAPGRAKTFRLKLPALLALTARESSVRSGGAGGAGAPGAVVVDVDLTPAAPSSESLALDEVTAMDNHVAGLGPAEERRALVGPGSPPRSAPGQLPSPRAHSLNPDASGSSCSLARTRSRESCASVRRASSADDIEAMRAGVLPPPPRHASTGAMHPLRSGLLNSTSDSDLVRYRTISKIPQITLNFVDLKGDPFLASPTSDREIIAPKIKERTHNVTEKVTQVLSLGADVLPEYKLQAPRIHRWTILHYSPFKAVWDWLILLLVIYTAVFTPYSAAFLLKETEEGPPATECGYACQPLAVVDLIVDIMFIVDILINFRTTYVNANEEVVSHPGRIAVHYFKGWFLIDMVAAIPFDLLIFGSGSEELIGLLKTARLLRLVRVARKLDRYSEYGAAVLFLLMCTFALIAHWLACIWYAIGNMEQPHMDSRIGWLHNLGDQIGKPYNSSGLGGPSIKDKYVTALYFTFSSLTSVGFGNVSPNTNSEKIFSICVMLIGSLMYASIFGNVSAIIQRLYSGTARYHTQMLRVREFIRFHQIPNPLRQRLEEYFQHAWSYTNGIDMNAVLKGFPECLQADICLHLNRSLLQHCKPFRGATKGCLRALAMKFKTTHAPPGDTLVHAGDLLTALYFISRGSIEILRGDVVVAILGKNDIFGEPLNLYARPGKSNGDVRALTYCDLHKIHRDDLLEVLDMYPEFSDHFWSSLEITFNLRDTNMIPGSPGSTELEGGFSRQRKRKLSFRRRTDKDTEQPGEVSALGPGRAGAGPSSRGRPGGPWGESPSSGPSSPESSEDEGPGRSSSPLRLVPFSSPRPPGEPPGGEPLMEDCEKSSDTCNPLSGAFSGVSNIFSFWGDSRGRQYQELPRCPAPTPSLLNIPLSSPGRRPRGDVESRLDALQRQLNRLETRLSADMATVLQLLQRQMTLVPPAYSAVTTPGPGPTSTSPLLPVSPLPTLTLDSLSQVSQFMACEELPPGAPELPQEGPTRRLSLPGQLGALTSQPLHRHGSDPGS

Row | SMILES | hERG current change (%, negative = inhibition) at 10uM
1 | CN(C)S(=O)(=O)c1ccc(C(=O)N2CCN(C(=O)C3CCCO3)CC2)cc1 (centres unmarked) | 5.14%
2 | Cc1cccc(Nc2ccc([N+](=O)[O-])cn2)c1 | 10.9%
3 | O=C1CN(C(=O)COC(=O)c2ccc[n+]([O-])c2)c2ccccc2N1 | 22.9%
4 | CCOC(=O)C1=NNC2C(=O)N(Cc3ccccc3)C(=O)C12 (centres unmarked) | 5.91%
5 | COc1ccc(C(=O)N2CCC(C(=O)Nc3ccc(OC)c(OC)c3)CC2)cc1 | 1.37%
6 | Cn1ncc(C(N)=O)c1NC(=S)NC(=O)c1ccc(Br)o1 | 10.1%
7 | O=C(O)CCCCCCCCc1cn(CN2C(=O)c3ccccc3C2=O)nn1 | 13.3%
8 | CSc1ccc(S(=O)(=O)NCC(=O)OCC(=O)N2CCCC2=O)cc1[N+](=O)[O-] | -9.51%
9 | CCN(CC)c1ccc(S(=O)(=O)N2CCOCC2)cc1NC(=O)CSc1ccccc1 | -16.3%
10 | O=C(c1cccc(Cl)c1)N1CCN(Cc2ccccc2F)CC1 | 10.1%
11 | O=C(NCCc1c[nH]c2ccccc12)Nc1ccccc1 | 12%
12 | CCOc1ccc(OCC)c(NC(=O)C2CCCN(S(=O)(=O)c3ccc(C)cc3)C2)c1 (centres unmarked) | 13.9%
13 | Clc1ccc2nc(-c3ccc(Cl)nc3)[nH]c2c1 | 3.76%
14 | O=C(NC(=S)N1CCN(C/C=C/c2ccccc2)CC1)c1ccc(Cl)nc1 | -23.5%
15 | COc1cccc(/C=C/C(=O)OCC(=O)NCCC2=CCCCC2)c1 | 1.2%
16 | Cc1nnc(NC(=O)c2csc3c2CCCC3)s1 | 8.52%
17 | CCOc1ccccc1C1C(C#N)=C(N)Oc2cc(N)ccc21 (centres unmarked) | -5.58%
18 | O=C(CN1CCN(Cc2ccc(F)cc2)C1=O)NC1CCCC1 | -6.54%
19 | Cc1ccc(S(=O)(=O)c2nc(S(C)(=O)=O)sc2N2CCCC2)cc1 | 14.5%
20 | Cc1cc(C(F)(F)F)c2c(N)c(C(=O)NC3CC3)sc2n1 | 18.7%
21 | Cn1c(CN2CCOCC2)nnc1SCC(=O)Nc1cccc(C(F)(F)F)c1 | -1.04%
22 | CCOC(=O)c1c(C)[nH]c(C)c1C(=O)COc1ncnc2ccccc12 | 23.3%

Row | SMILES | hERG current change (%, negative = inhibition) at 10uM
23 | O=C(c1cc(-c2ccc(F)cc2)on1)N1CCCCCC1 | 2.96%
24 | COc1cccc(/C=C(\C#N)c2nc3ccccc3[nH]2)c1OCC(=O)O | 29.2%
25 | CC(C)CCNC(=O)CN(C)S(=O)(=O)c1cccc2nsnc12 | -1.24%
26 | CCn1c(CNc2ccc(Cl)cc2)nnc1SCC(=O)OC1CCCCC1 | -37%
27 | Cc1ccc2cc(CN(Cc3ccco3)C(=O)c3cccs3)c(=O)[nH]c2c1 | -9.06%
28 | COc1ccccc1CCC(=O)OCC(=O)N1c2ccccc2NC(=O)C1(C)C | 9.94%
29 | O=C(Cn1nc(-c2cccc([N+](=O)[O-])c2)c2ccccc2c1=O)NCC1CCCO1 (centres unmarked) | -34.1%
30 | NC(=O)CN1CCN(C(=O)NC2CCCCC2)CC1 | 5.46%
31 | CCOc1ccc(-c2cccc(NS(=O)(=O)c3ccc([N+](=O)[O-])cc3)c2)nn1 | -11.7%
32 | O=C(Nc1cccc(S(=O)(=O)N2CCOCC2)c1)c1cc2c(s1)CCC2 | -33.8%
33 | Cc1ccnc(SC2CC(=O)N(c3ccc(Br)cc3)C2=O)n1 (centres unmarked) | 9.29%
34 | COc1ccc2c(c1)CCCC21SC(NC(C)=O)=NN1C(C)=O (centres unmarked) | 5.45%
35 | CC1CCC(NC(=O)CSc2nncs2)CC1 (centres unmarked) | 0.49%
36 | CCCCOCCCNC(=O)COc1ccccc1 | 2.15%
37 | CC(C)CNC(=O)NC(=O)CSc1nc2ccccc2n1CC(C)C | 0.388%
38 | Cc1nc(SCC(=O)N2CCOCC2)c2ccsc2n1 | 1.76%
39 | Nc1cc(N)nc(SCC(=O)Nc2ccc3c(c2)OCO3)n1 | -7.3%
40 | CCOc1cc2c(cc1C=O)OC(C)C2 (centres unmarked) | 22.1%
41 | CCOC(=O)N1CCN(C(=O)COc2cc(=O)n(C)c3ccccc23)CC1 | -0.615%
42 | CCN(CC)CCOC(=O)c1ccc(N/C=C(/C#N)c2nc(-c3ccc4c(c3)OCO4)cs2)cc1 | 6.58%
43 | O=S(=O)(NC1CN2CCC1CC2)c1ccc(Cl)cc1 (centres unmarked) | 12.6%
44 | O=C(C[n+]1ccccc1)N/N=C/c1cc(Br)cc(Br)c1O.[Cl-] | 27%

From PMC4336329 (PLoS ONE, 2015)
